Laboratory results reported in the supplement of paper PMC4604168 (melanoma cell lines).
The list shows a part of the results. Repeats are few or missing, and single values can be far off.

What follows are compounds tested on WM1745 (assay: cell count relative to DMSO control; melanoma cells; higher = more viable cells). Conditions: library dose: standard library concentration; 72 h; first compound 2 µM.
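Also: cells treated in 1,536-well plates, then fixed and DAPI-stained, with nuclei counted from automated high-throughput microscope images.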

**Q.** `C[C@@H](N)c1ccc(C(=O)Nc2ccnc3[nH]ccc23)cc1` + CCCCCCCCc1ccc(CCC(N)(CO)CO)cc1 [fingolimod] (partner dose 10 µM) was tested. Which cell count did it give?
**A.** 2.97%

**Q.** With `Cn1sc(=O)n(Cc2ccccc2)c1=O` + C[C@]1(O)C[C@@H](c2nc(-c3ccc4ccc(-c5ccccc5)nc4c3)c3c(N)nccn32)C1 [OSI906] (partner dose 2 µM) as the compound, how does the cell count read?
**A.** 71%

**Q.** How did the cell count turn out when `Cn1sc(=O)n(Cc2ccccc2)c1=O` + NC(=O)c1ccc(N(C(N)=O)c2c(F)cccc2F)nc1-c1ccc(F)cc1F [VX702] (partner dose 2 µM) was run?
**A.** 104%

**Q.** How did the cell count turn out when `C[C@@H](N)c1ccc(C(=O)Nc2ccnc3[nH]ccc23)cc1` + Cn1cnc2c(F)c(Nc3ccc(Br)cc3Cl)c(C(=O)NOCCO)cc21 [selumetinib] (partner dose 0.075 µM) was run?
**A.** 49.1%

**Q.** Which cell count does the source give for `CCCCCCCCCCCCCCCCCCOP(=O)([O-])OC1CC[N+](C)(C)CC1` [Perifosine] + CC(C)C[C@H](NC(=O)[C@H](Cc1ccccc1)NC(=O)c1cnccn1)B(O)O [Bortezomib] (partner dose 0.005 µM) here?
**A.** 19.5%

**Q.** Which cell count does the source give for `C[C@@H](N)c1ccc(C(=O)Nc2ccnc3[nH]ccc23)cc1` + CNC(=O)c1cc(Oc2ccc(NC(=O)Nc3ccc(Cl)c(C(F)(F)F)c3)cc2)ccn1 [sorafenib] (partner dose 2 µM) here?
**A.** 55.3%

**Q.** `CCCCCCCCCCCCCCCCCCOP(=O)([O-])OC1CC[N+](C)(C)CC1` [Perifosine] + C[C@]1(O)C[C@@H](c2nc(-c3ccc4ccc(-c5ccccc5)nc4c3)c3c(N)nccn32)C1 [OSI906] (partner dose 2 µM) was tested. Which cell count did it give?
**A.** 74.7%
